From PubChem BioAssay AID1460 (National Center for Advancing Translational Sciences (NCATS), 2008)
Values joined by “and” are separate entries in the source; they are usually repeats but may differ in a detail not shown here. Identical values can stand only once. In all, about 270,000 compounds went through this assay and about 5,800 (2.1%) were called active. This list was built around the results that the source calls inconclusive (neither active nor inactive); the mix of calls is not that of the screen. Calls come from the whole dose curve; as a rule, active = well fitted inhibition curve with a large enough effect; inconclusive = small, poorly fitted or top-dose-only effect; inactive = flat fitted curve, though single readings scatter. Potencies beside an inconclusive call are fits to weak or partial responses and may not hold up.

molecular target: Microtubule-associated protein tau (Homo sapiens) (UniProt P10636); assay: qHTS for Inhibitors of Tau Fibril Formation, Thioflavin T Binding; details: recombinant tau K18 P301L, heparin-induced fibrillization, ThT fluorescence; series mostly up to 57.4 µM; note: nearly all actives have a fitted effect of over 55% in size
Summary of the method: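 Fibril formation assay: tau K18 P301L at 15 uM with trace Alexa 594 label, heparin inducer 20 uM, pH 7 sodium acetate buffer, 37 C for 6 hr; endpoint ThT signal.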
Potency is the fitted concentration of half-maximal effect; tags give direction and shape of the fitted curve.

UniProt P10636, sequence (P10636 whole entry, looked up): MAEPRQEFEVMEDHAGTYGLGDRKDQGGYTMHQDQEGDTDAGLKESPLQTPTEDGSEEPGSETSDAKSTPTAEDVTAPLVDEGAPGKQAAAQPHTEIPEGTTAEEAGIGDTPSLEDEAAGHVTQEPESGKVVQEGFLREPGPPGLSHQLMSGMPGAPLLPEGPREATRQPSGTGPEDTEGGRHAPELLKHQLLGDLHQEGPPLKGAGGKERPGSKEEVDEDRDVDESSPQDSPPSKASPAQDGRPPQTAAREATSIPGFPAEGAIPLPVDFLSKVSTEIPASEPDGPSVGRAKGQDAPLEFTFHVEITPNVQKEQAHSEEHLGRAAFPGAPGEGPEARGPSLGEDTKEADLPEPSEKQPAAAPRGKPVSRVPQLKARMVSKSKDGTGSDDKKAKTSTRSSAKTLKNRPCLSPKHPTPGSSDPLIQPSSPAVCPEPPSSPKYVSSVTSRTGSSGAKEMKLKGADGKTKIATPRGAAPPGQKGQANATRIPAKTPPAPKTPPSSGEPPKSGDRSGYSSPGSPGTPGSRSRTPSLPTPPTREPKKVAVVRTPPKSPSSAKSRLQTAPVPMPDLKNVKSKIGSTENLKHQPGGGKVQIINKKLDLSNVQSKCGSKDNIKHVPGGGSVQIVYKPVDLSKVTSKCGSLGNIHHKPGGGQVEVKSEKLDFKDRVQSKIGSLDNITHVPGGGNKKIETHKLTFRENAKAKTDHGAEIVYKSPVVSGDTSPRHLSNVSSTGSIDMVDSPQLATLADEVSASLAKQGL

| SMILES | Potency |
| --- | --- |
| Cc1nc2c3cc(F)ccc3n(Cc3ccccc3F)c2s1 | inconclusive: 31.6 µM [inhibitor, partial curve] |
| CCN(CC)c1ccc(C(=O)Nc2ccc3nc(N(CC)CC)cc(C)c3c2)cc1 | active: 3.55 µM |
| CCOC(=O)c1ccc(NC(=O)CCn2c(=O)oc3ccccc32)cc1 | inconclusive: 35.5 µM [inhibitor, single point] |
| N#CCCCS(=O)(=O)c1ccccc1 | inactive |
| CCN(CC)c1ccc(NC(=O)c2cccnc2)cc1 | inconclusive: 10 µM [inhibitor, partial curve, poor fit] |
| Cc1ccc(-c2csc(Nc3ccccc3)[n+]2CCc2ccccc2)cc1 | inconclusive: 35.5 µM [inhibitor, single point] |
| COc1ccc(/C=C/C(=O)c2c(O)cc(C)oc2=O)c(OC)c1 | inactive |
| Oc1c(C(c2ccccn2)N2CCCCC2)cc(Cl)c2cccnc12 (stereo unspecified) | inconclusive: 11.2 µM [inhibitor, partial curve] |
| Cc1nc(N2CCN(C(=O)c3ccco3)CC2)c2oc3ccccc3c2n1 | inconclusive: 12.6 µM [inhibitor, partial curve] |
| COc1cc(OC)c(OC)cc1CN(C)C(c1ccccc1)c1nnnn1-c1ccccc1C (stereo unspecified) | inconclusive: 39.8 µM [inhibitor, single point] |
| Cc1ccc2c(C)c(C(=O)N3CCC(c4nc5ccccc5s4)CC3)oc2c1C | inactive |
| COc1ccc(C(=O)Nc2nc3ccccc3c(=O)[nH]2)cc1 | inconclusive: 3.55 µM [inhibitor, partial curve] |
| COc1ccc(Nc2c(-c3ccco3)nc3cccc(C)n23)cc1 | inconclusive: 35.5 µM [inhibitor, single point] |
| Nc1nc(Nc2ccccc2)nc(NCc2ccccc2)c1[N+](=O)[O-] | inconclusive: 4.47 µM [inhibitor, partial curve] |
| CCOC(=O)N1CCN(C(=O)COC(=O)c2cc(Cl)c(O)c(Cl)c2)CC1 | inconclusive: 12.6 µM [inhibitor, single point] |
| CC(=O)c1ccc(-n2cc(-c3ccc(C(C)(C)C)cc3)[n+]3c2SCCC3)cc1 | inactive |
| CS(=O)(=O)N(CC(=O)N/N=C/c1cc([N+](=O)[O-])ccc1Cl)c1ccccc1 | inactive |
| CCc1ccc2c(c1)[C@H]1OCC[C@H]1[C@@H](c1cccs1)N2 | inactive |
| N#Cc1c(N)n[nH]c1-c1cc2c([nH]1)CCCC2 | inconclusive: 12.6 µM [inhibitor, partial curve] |
| CCCCC1=CC2=C(c3ccco3)C(=O)C(C)(OC(=O)c3ccc(OC)cc3)C(=O)C2=CN1CCCOC(C)C (stereo unspecified) | inconclusive: 22.4 µM [inhibitor, partial curve] and inconclusive: 2.82 µM [inhibitor, partial curve] |
| CN(C)c1ccc(C2CC(c3c(O)n(C4CCCCC4)c(=O)[nH]c3=O)=Nc3ccccc3S2)cc1 (stereo unspecified) | inactive |
| O=C(Nc1ccccc1)C1=C[C@H](c2ccc(Br)cc2)C[C@H](OCc2ccc(CO)cc2)O1 | inactive |
| COc1cccc(Nc2nc(N)nc(-c3oc4ccccc4c3C)n2)c1 | inconclusive: 39.8 µM [activator, single point] |
| CCCCOc1ccc(C(=O)Nc2ccc3c(c2)OCO3)cc1 | inconclusive: 2.51 µM [inhibitor, full curve] |

| SMILES | Potency |
| --- | --- |
| Oc1ccc(O)c(-c2cnns2)c1 | inconclusive: 20 µM [inhibitor, single point] |
| Cc1cc(C)c2oc(-c3cc(NC(=O)Cc4ccccc4)ccc3Cl)nc2c1 | inactive |
| S=C(NC1CCCCC1)N1CCOCCOCCN(C(=S)NC2CCCCC2)CCOCCOCC1 | inconclusive: 39.8 µM [inhibitor, single point] |
| Cn1cc(C(=O)CCl)c2ccccc21 | inconclusive: 17.8 µM [inhibitor, partial curve] |
| CC(C)=NOCc1ccc(-c2cn([C@@H]3COC[C@H]3O)nn2)cc1 | inactive |
| Cc1ccc2oc(=O)c3cnn(CC(=O)N4CCN(c5cccc(C(F)(F)F)c5)CC4)c3c2c1 | inactive |
| Cc1cc(N2CCN(c3cccc(C(F)(F)F)c3)CC2)n2nc(-c3ccccc3C)nc2n1 | inconclusive: 14.1 µM [inhibitor, partial curve] |
| O=C(c1cccs1)N1CCc2ccccc21 | inactive |
| CCOc1ccc(-c2cc3c(=O)n(Cc4nc(-c5ccc(OC)cc5OC)oc4C)ccn3n2)cc1Cl | inactive |
| CCOc1ccc(NC(=O)N(Cc2ccc(CC)cc2)Cc2cn[nH]c2-c2ccc(OC)cc2)cc1 | inactive |
| CCOC(=O)CNC(=O)CCNS(=O)(=O)c1ccc2c(c1)c(=O)n(C)c(=O)n2C | inactive |
| CCOC(=O)C1=C(C)OC(N)=C(C#N)C1c1cc(F)ccc1F (stereo unspecified) | inconclusive: 35.5 µM [inhibitor, single point] |
| CCO/N=C(\C)c1c(O)c(CC)c(-c2ccccc2)n(-c2ccccc2)c1=O | inconclusive: 25.1 µM [inhibitor, partial curve] |
| CCOc1ccc(Cc2nccc3cc(OCC)c(OCC)cc23)cc1OCC | inactive |
| O=c1[nH]c2ccc(NCc3ccc(-c4ccccc4F)o3)cc2[nH]1 | inconclusive: 1.41 µM [inhibitor, full curve] |
| Cc1ccc(S(=O)(=O)c2nc(-c3ccco3)oc2NCC2CCCO2)cc1 (stereo unspecified) | inconclusive: 39.8 µM [inhibitor, single point] |
| CN1CCN(NC(=S)NC(C)(C)CC(C)(C)C)CC1 | inactive |
| O=[N+]([O-])c1ccc(O)c(/C=N/Nc2ccccn2)c1 | inconclusive: 4.47 µM [inhibitor, partial curve] |
| O=c1c(-c2cc(-c3ccc(Cl)cc3)nc3c2COc2ccccc2-3)coc2ccccc12 | inactive |
| CC(C)(C)OC(=O)COc1cc(OCC(=O)OC(C)(C)C)c2c(=O)cc(-c3ccccc3)oc2c1 | inconclusive: 31.6 µM [inhibitor, single point] |
| Cc1ccccc1-n1cnc2cc(NCc3cccs3)ccc21 | inconclusive: 15.8 µM [inhibitor, partial curve] |
| COc1cccc(C(=O)Cn2c(=N)n(C)c3ccccc32)c1 | inconclusive: 28.2 µM [inhibitor, partial curve] |
| O=C(Oc1ccc(Cl)cc1)c1ccc(COC(=O)c2cnccn2)cc1 | inconclusive: 22.4 µM [inhibitor, partial curve] |
| Cc1sc2ncn(CC(=O)N3CCN(c4ccccc4F)CC3)c(=O)c2c1S(=O)(=O)N1CCN(c2ncccn2)CC1 | inactive |

| SMILES | Potency |
| --- | --- |
| CC(=O)c1c(C)nc(Nc2nc(C)c3cc(C)ccc3n2)nc1C | inactive |
| COc1ccc(C(=O)N2CC(=O)Nc3ccc(C)cc3C2c2ccc(F)cc2)c(OC)c1 (stereo unspecified) | inactive |
| CCc1ccccc1OCCSc1nc(-c2cccs2)nc2cc(=O)[nH]n12 | inconclusive: 10 µM [inhibitor, partial curve] |
| O=C(/C=C1\C(=O)Nc2ccccc21)/C=C1\C(=O)Nc2ccccc21 | active: 28.2 µM |
| CS(=O)(=O)N1CCN(c2ccc(NC(=O)c3ccc(Br)o3)cc2)CC1 | inconclusive: 3.55 µM [inhibitor, full curve] |
| Nc1ccc(CC2SC(=O)NC2=O)cc1 (stereo unspecified) | inconclusive: 0.447 µM [inhibitor, partial curve] |
| NC(=O)CSc1ccc(F)cc1 | inactive |
| CC1(C)CC(=O)C2=C(C1)OC(N)=C(C#N)C2c1cn(-c2ccccc2)nc1-c1ccccc1 (stereo unspecified) | inconclusive: 39.8 µM [inhibitor, single point] |
| COc1cc(NS(=O)(=O)c2ccc(N/C=C(\C#N)c3nc4cc(Cl)ccc4o3)cc2)nc(OC)n1 | inconclusive: 39.8 µM [inhibitor, single point] |
| OCCCN=c1cc(-c2ccccc2)oc2ccc(Cl)cc12 | inactive |
| C/C(=N\Nc1nc2ccccc2[nH]1)c1ccc(Cl)s1 | inconclusive: 12.6 µM [inhibitor, partial curve] |
| Cc1cc(C)n2nc(-c3ccsc3-n3c(C)ccc3C)cc2n1 | inconclusive: 6.31 µM [inhibitor, partial curve] |
| CC(=O)Nc1ccc(Nc2c3ccccc3nc3ccccc23)cc1 | inconclusive: 25.1 µM [inhibitor, partial curve] |
| CC(CCc1ccccc1)NC(=O)CCCCCNc1nc(=S)[nH]c2ccccc12 (stereo unspecified) | inactive |
| COc1ccc(CCNC(=O)C(=O)Nc2ccc(C)c(C)c2)cc1 | inconclusive: 0.631 µM [inhibitor, full curve, poor fit] |
| Cc1c(Cc2ccccc2)sc(/N=C/c2c(O)ccc3ccccc23)c1C(N)=O | active: 28.2 µM |
| COC1=C/C(=C/c2c(N)n3c(nc2=O)sc2cc(S(C)(=O)=O)ccc23)C=CC1=O | inconclusive: 2.82 µM [inhibitor, full curve] |
| O=C(CSc1nc2c(c(=O)[nH]1)CCC2)Nc1cccc(Cl)c1 | inactive |
| COC(=O)[C@@]1(Cc2ccccc2-c2ccco2)C=C[C@H](C)[C@@H](c2ccccc2)N1C(=O)C(F)(F)F | inactive |
| CCOc1ccc(N=Nc2c(=O)[nH]n3c(=O)c4c([nH]c23)CCCC4)cc1 | active: 1.78 µM |
| COCCn1c(=NC(=O)/C=C/c2cccs2)sc2cc(NC(C)=O)ccc21 | inconclusive: 14.1 µM [inhibitor, partial curve] |
| CC(=O)Nc1ccc2nc(NS(=O)(=O)c3ccc(C)cc3)sc2c1 | inconclusive: 20 µM [inhibitor, partial curve, poor fit] |
| C=CCn1c(-c2ccccc2OC)n[nH]c1=S | inactive |
